Data: PubChem BioAssay (NCATS)
The shares of active, inactive and inconclusive entries below differ from those in the screen. For some assays here: A potency beside an inconclusive call is a rough fit, not a confirmed value. Active and inactive are the calls of the source. Calls follow the shape of the dose curve; as a rule, active = well fitted curve in the direction sought with a large enough effect; inconclusive = small, poorly fitted or top-dose-only effect, or another doubt; inactive = no such curve, though single readings can be large; an effect the other way counts as inactive or inconclusive.

Legend:
MCC-13 = test: qHTS assay to identify novel small-molecules to repurpose for Merkel cell carcinoma treatment (AID 1296009); details: MCC and control cell lines, CellTiter-Glo viability, 72 h; series mostly up to 46 µM; also: nearly all actives have a fitted effect of over 60% in size
In short: (§1)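 qHTS format: cells treated with library compounds in DMSO across 8 (NPC) or 11 (MIPE) concentrations. Readout after 72 hr at 37 degree celsius was CellTiter-Glo luminescence.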

[1] = qHTS of pediatric cancer cell lines to identify multiple opportunities for drug repurposing: Primary screen for U-2 OS cells (AID 1347096); also: nearly all actives have a fitted effect of over 50% in size
In short: (§2)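 Cells (500-1,000/well) in growth media were settled 5 h at 37 degrees C, then given compounds for 48 h. Viability was read as CellTiter-Glo luminescence. Primary runs used MIPE at 11 points (0.78 nM-46 µM) and NPC at 8 points (0.59 nM-46 µM); follow-ups used 11 points.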

[2] = qHTS of pediatric cancer cell lines to identify multiple opportunities for drug repurposing: Primary screen for RD cells (AID 1347104); details: RD rhabdomyosarcoma viability, CellTiter-Glo luminescence, 48 h; activity change, negative = cytotoxic: at 46 µM (top of the series); also: nearly all actives have a fitted effect of over 55% in size
In short: (§3)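 500-1,000 cells/well; 5 h pre-incubation 37 °C/5% CO2; compound pinned; 48 h; CellTiter-Glo, 15 min RT; luminescence. MIPE 11-pt from 0.78 nM, NPC 8-pt from 0.59 nM final. Bortezomib 2.3 µM final as positive control.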

[3] = qHTS of pediatric cancer cell lines to identify multiple opportunities for drug repurposing: Primary screen for control Hh wild type fibroblast cells (AID 1347106); also: nearly all actives have a fitted effect of over 55% in size
In short: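 Viability after 48 h compound treatment at 37C, 500-1,000 cells/well, read as ATP luminescence with CellTiter-Glo. Primary screens used 11-point (MIPE, 0.78 nM-46 µM) or 8-point (NPC, 0.59 nM-46 µM) final concentrations; follow-up screens used 11-point dilutions.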

[4] = molecular target: Phospholipid hydroperoxide glutathione peroxidase GPX4 (Homo sapiens) (UniProt P36969); test: Primary qHTS Assay for Inhibitors of Recombinant Selenoprotein Glutathione Peroxidase 4 (GPX4) (AID 1845192); also: nearly all actives have a fitted effect of over 65% in size
In short: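 GR-coupled readout: 100 nM GR, 1 mM GSH, 0.5 mM NADPH; NADPH fluorescence (ex 340/em 450 nm) read at t=0 and after 15 min RT. GPX4 200 nM, preincubated 30 min with compound; substrate 0.5 mM CHP.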

[5] = Quantitative High-Throughput drug screen in 47 multiple myeloma cell lines against the NCATS MIPE library collection: KHM11_PLB cell viability assay (AID 1918962); details: KHM11 myeloma cell viability, CellTiter-Glo ATP luminescence, 48 h; series mostly up to 45.8 µM; also: nearly all actives have a fitted effect of over 35% in size
In short: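 Viability readout: CellTiter-Glo luminescence following 5 min room-temperature incubation with reagent. Prior exposure: 48 h, 37C, humidified 5% CO2, 500 cells per well.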

[6] = Quantitative High-Throughput drug screen in 47 multiple myeloma cell lines against the NCATS MIPE library collection: JIM1_ECACC cell viability assay (AID 1918964)
In short: (§4)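 CellTiter-Glo luminescence (ATP) after 48 h compound exposure, 37C/5% CO2; 500 cells/well; MIPE 4.0 approved/investigational drugs pinned in; DMSO = 100%, media only = 0% viability.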

[7] = Quantitative High-Throughput drug screen in 47 multiple myeloma cell lines against the NCATS MIPE library collection: KMS21BM_JCRB cell viability assay (AID 1918974); details: ATP luminescence, 48 h; viability: at 45.8 µM (top of the series)
In short: as §4

[8] = Quantitative High-Throughput drug screen in 47 multiple myeloma cell lines against the NCATS MIPE library collection: L363_DSMZ cell viability assay (AID 1918984); details: L363 myeloma viability, CellTiter-Glo ATP luminescence, 48 h; series mostly up to 45.8 µM; also: nearly all actives have a fitted effect of over 40% in size
In short: (§5)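 MIPE 4.0 approved/investigational drugs; 500 cells/well; 48 h 37 °C humidified 5% CO2; CTG luminescence readout; DMSO = 100%, media = 0% viability.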

[9] = Quantitative High-Throughput drug screen in 47 multiple myeloma cell lines against the NCATS MIPE library collection: UTMC2_PLB cell viability assay (AID 1919868); details: CellTiter-Glo ATP luminescence, 48 h; series mostly up to 45.8 µM; also: nearly all actives have a fitted effect of over 55% in size
In short: as §5

[10] = tested on: Zika virus NS2B-NS3 protease (linked construct); test: Primary screen NINDS Rhodamine qHTS for Zika virus inhibitors (AID 1347160); details: activity change, negative = inhibition: at 57.1 µM (top of the series) unless noted; also: nearly all actives have a fitted effect of over 55% in size
In short: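 Kinetic fluorescence (Ex 480 nm, Em 540 nm) over 15 min with 1.5 microM Rhodamine110 peptide and 25 nM linked protease.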

MKL-1 = test: qHTS assay to identify novel small-molecules to repurpose for Merkel cell carcinoma treatment (AID 1296009); details: MCC and control cell lines, CellTiter-Glo viability, 72 h; series mostly up to 46 µM; also: nearly all actives have a fitted effect of over 60% in size
In short: as §1

[11] = tested on: Zika virus NS2B-NS3 protease (unlinked complex); test: Primary screen GU Rhodamine qHTS for Zika virus inhibitors: Unlinked NS2B-NS3 protease assay (AID 1347159); also: nearly all actives have a fitted effect of over 60% in size
In short: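 A qHTS format was used, with compound concentrations ranging up to 114 microM. Each compound was preincubated with 25 nM NS2B-NS3 protease, and the substrate was then added at 1.5 microM. Curves were fitted with a 4-parameter Hill model.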

[12] = qHTS of pediatric cancer cell lines to identify multiple opportunities for drug repurposing: Primary screen for A673 cells (AID 1347092); details: A673 Ewing sarcoma viability, CellTiter-Glo ATP luminescence, 48 h; activity change, negative = cytotoxic: at 46 µM (top of the series); also: nearly all actives have a fitted effect of over 45% in size
In short: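 A673 cells (500-1,000 cells/well) were treated 48 hours at 37 degrees C with compounds at 11-point (0.78 nM to 46 µM) or 8-point (0.59 nM to 46 µM) dilutions. Viability read by CellTiter-Glo luminescence; concentration-response curves fitted.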

[13] = qHTS of pediatric cancer cell lines to identify multiple opportunities for drug repurposing: Primary screen for SK-N-MC cells (AID 1347093); details: SK-N-MC viability, CellTiter-Glo luminescence, 48 h; activity change, negative = cytotoxic: at 46 µM (top of the series)
In short: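 Metabolically active cells were quantified by ATP-dependent luminescence (CellTiter-Glo, 15 min at room temperature) following 48 h treatment. Cells had been plated at 500-1,000 per well and settled for 5 h beforehand.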

[14] = qHTS of pediatric cancer cell lines to identify multiple opportunities for drug repurposing: Primary screen for Saos-2 cells (AID 1347097); also: nearly all actives have a fitted effect of over 40% in size
In short: as §3

[15] = qHTS of pediatric cancer cell lines to identify multiple opportunities for drug repurposing: Primary screen for MG 63 (6-TG R) cells (AID 1347105); details: MG 63 (6-TG R) viability, CellTiter-Glo, 48 h; activity change, negative = cytotoxic: at 46 µM (top of the series); also: nearly all actives have a fitted effect of over 50% in size
In short: as §3

[16] = qHTS of pediatric cancer cell lines to identify multiple opportunities for drug repurposing: Primary screen for TC32 cells (AID 1347089); also: nearly all actives have a fitted effect of over 60% in size
In short: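 TC32 cells, 500-1,000/well in growth medium, compound-treated 48 h at 37 °C; viability from CellTiter-Glo luminescence. Primary screen: MIPE 11-point (0.78 nM–46 µM final), NPC 8-point (0.59 nM–46 µM final); confirmatory at 11-point dilutions.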

[17] = qHTS of pediatric cancer cell lines to identify multiple opportunities for drug repurposing: Primary screen for Rh18 cells (AID 1347102); also: nearly all actives have a fitted effect of over 65% in size
In short: as §2
Potency is read from the fitted curve at half-maximal effect; tags tell the direction and shape of the fitted curve.

UniProt P36969, sequence (P36969 whole entry, looked up): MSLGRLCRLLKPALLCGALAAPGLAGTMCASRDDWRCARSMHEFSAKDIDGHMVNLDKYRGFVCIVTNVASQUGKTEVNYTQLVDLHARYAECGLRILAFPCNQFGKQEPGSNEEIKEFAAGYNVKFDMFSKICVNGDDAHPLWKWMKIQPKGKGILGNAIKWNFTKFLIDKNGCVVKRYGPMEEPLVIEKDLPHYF

COc1cc(C(=O)N2CCOCC2)cc(OC)c1OC
Potency (MCC-13): inactive

Clc1ccc(C(c2ccc(Cl)cc2)n2cc[n+](CC(OCc3ccc(Cl)cc3Cl)c3ccc(Cl)cc3Cl)c2)cc1 (stereo unspecified)
Potency [1]: inconclusive: 29.6 µM [cytotoxic, single point]
Potency [2]: active: 33.2 µM
Potency [3]: inconclusive: 23.5 µM [cytotoxic, partial curve, poor fit]
Potency [4]: inconclusive: 20.2 µM [inhibitor, single point]
Potency [5]: active: 10.5 µM
Potency [6]: active: 8.33 µM
Potency [7]: active: 8.33 µM
Potency [8]: active: 6.62 µM
Potency [9]: active: 4.69 µM

C=CC1(C)C=C2CC[C@H]3[C@@](C)(C(=O)O)CCC[C@]3(C)C2CC1 (stereo partly specified)
Potency [10]: active: 3.55 µM

CC1CC(OC(=O)c2ccccc2O)CC(C)(C)C1 (stereo unspecified)
Potency (MKL-1): inactive

CC(C)N(CCCCOCC(=O)NS(C)(=O)=O)c1cnc(-c2ccccc2)c(-c2ccccc2)n1
Potency [11]: active: 7.94 µM

C[C@@H]1O[C@@H](OC[C@H]2O[C@@H](Oc3c(-c4ccc(O)c(O)c4)oc4cc(O)cc(O)c4c3=O)[C@H](O)[C@@H](O)[C@@H]2O)[C@H](O)[C@H](O)[C@H]1O
Potency [10]: inconclusive: 11.5 µM [inhibitor, partial curve, poor fit]

CCc1oc2ccccc2c1C(=O)c1cc(Br)c(O)c(Br)c1
Potency [12]: inconclusive: 26.6 µM [cytotoxic, single point]
Potency [13]: inconclusive: 33.5 µM [cytotoxic, single point]
Potency [14]: inconclusive: 33.5 µM [cytotoxic, single point]
Potency [2]: inconclusive: 26.6 µM [cytotoxic, single point]
Potency [15]: inconclusive: 33.5 µM [cytotoxic, single point]
Potency [4]: inconclusive: 28.6 µM [inhibitor, single point]

CCS(=O)(=O)CCn1c([N+](=O)[O-])cnc1C
Potency [13]: inactive

CN1CCCN=C1COC(=O)C(O)(c1ccccc1)C1CCCCC1 (stereo unspecified)
Potency [2]: inconclusive: 23.7 µM [cytotoxic, partial curve, poor fit]
Potency (MCC-13): inactive

Cn1cc(CNCC2CCN(c3ncc(C(=O)NO)cn3)CC2)c2ccccc21
Potency [1]: active: 0.469 µM
Potency [3]: active: 2.64 µM
Potency [5]: active: 0.0662 µM
Potency [6]: active: 0.0743 µM
Potency [9]: active: 0.0187 µM

CN(C)Cc1c(C(=O)NCCOc2ccc(C(=O)NO)cc2)oc2ccccc12
Potency [13]: active: 0.743 µM
Potency [1]: active: 2.96 µM
Potency [3]: inconclusive: 7.43 µM [cytotoxic, full curve]
Potency [10]: inactive
Potency [5]: active: 1.87 µM
Potency [6]: active: 0.418 µM
Potency [7]: active: 0.0469 µM
Potency [8]: active: 0.332 µM

CC(C)n1c(/C=C/[C@@H](O)C[C@@H](O)CC(=O)O)c(-c2ccc(F)cc2)c2ccccc21
Potency [16]: active: 16.7 µM
Potency [13]: active: 15 µM
Potency [14]: active: 1.5 µM
Potency [17]: active: 7.5 µM
Potency [2]: inconclusive: 15 µM [cytotoxic, partial curve]

Cc1csc(NC(=O)c2ccc(COc3cccc(Cl)c3)o2)n1
Potency [11]: inconclusive: 100 µM [inhibitor, single point]

N=c1nc(N2CCCCC2)cc(N)n1O
Potency [15]: inconclusive: 18.7 µM [cytotoxic, partial curve]
Potency [3]: inconclusive: 5.9 µM [cytotoxic, full curve, poor fit]
Potency [4]: inactive
Potency [5]: inconclusive: 33.2 µM [cytotoxic, single point]
Potency [6]: inactive
Potency [7]: inconclusive: 33.2 µM [rising, partial curve, poor fit]
Potency [8]: inconclusive: 0.0019 µM [rising, full curve, poor fit]
Potency [9]: inconclusive: 37.2 µM [cytotoxic, partial curve, poor fit]

CN1CC[C@H](c2c(O)cc(O)c3c(=O)cc(-c4ccccc4Cl)oc23)[C@H](O)C1
Potency [1]: inconclusive: 0.422 µM [cytotoxic, full curve]
Potency [14]: inconclusive: 0.188 µM [cytotoxic, full curve]
Potency [17]: inconclusive: 0.473 µM [cytotoxic, full curve]
Potency [15]: inconclusive: 0.531 µM [cytotoxic, full curve]
Potency (MCC-13): inconclusive: 0.596 µM [inhibitor, full curve]
Potency (MKL-1): inconclusive: 0.531 µM [inhibitor, full curve]
